From article PMC8986528
Results are given in words; binding and its absence hold for the method and conditions named. In cells and extracts the contact can be indirect. Some results given as binding are weak or reduced against the parent protein; the word gives no strength.

Chains of the proteins cited; added tags and fusions are not shown. Lines headed by an entry give the natural chain unless they say otherwise; changes in a name come on top.
UniProt Q99496: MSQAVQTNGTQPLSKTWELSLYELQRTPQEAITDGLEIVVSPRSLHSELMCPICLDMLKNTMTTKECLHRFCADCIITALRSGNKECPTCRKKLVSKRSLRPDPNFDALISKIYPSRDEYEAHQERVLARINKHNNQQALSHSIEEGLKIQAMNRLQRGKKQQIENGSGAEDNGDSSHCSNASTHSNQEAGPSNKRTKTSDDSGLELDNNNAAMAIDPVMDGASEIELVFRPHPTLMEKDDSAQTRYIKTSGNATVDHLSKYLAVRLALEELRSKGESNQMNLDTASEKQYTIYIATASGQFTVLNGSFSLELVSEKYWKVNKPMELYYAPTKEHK
UniProt Q8IZL8: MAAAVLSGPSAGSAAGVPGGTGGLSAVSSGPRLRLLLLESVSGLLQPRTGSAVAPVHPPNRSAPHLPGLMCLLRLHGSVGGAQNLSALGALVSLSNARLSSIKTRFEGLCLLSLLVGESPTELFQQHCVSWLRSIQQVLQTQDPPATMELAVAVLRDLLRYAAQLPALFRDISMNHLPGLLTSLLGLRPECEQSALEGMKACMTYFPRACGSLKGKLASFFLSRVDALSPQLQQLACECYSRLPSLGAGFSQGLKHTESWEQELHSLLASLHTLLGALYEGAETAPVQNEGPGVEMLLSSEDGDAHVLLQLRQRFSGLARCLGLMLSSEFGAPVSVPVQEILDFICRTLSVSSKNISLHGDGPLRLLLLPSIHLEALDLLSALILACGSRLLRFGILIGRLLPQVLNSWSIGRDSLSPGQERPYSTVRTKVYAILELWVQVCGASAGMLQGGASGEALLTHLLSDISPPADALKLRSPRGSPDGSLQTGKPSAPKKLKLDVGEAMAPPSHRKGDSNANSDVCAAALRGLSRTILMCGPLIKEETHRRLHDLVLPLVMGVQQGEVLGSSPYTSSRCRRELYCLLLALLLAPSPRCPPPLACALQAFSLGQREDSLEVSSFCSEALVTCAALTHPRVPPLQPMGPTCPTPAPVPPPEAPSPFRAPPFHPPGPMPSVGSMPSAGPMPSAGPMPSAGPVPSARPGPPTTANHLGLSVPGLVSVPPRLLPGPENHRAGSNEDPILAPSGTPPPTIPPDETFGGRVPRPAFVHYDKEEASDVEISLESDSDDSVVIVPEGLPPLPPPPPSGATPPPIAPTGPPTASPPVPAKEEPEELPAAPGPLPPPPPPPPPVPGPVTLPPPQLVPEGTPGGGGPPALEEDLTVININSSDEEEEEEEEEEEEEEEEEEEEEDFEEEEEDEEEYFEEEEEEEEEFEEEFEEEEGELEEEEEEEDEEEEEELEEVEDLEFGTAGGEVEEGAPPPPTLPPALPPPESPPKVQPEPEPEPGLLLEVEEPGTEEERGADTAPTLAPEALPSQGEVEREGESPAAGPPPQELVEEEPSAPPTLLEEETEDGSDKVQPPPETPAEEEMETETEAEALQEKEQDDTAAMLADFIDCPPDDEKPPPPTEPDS
UniProt Q9H4L4: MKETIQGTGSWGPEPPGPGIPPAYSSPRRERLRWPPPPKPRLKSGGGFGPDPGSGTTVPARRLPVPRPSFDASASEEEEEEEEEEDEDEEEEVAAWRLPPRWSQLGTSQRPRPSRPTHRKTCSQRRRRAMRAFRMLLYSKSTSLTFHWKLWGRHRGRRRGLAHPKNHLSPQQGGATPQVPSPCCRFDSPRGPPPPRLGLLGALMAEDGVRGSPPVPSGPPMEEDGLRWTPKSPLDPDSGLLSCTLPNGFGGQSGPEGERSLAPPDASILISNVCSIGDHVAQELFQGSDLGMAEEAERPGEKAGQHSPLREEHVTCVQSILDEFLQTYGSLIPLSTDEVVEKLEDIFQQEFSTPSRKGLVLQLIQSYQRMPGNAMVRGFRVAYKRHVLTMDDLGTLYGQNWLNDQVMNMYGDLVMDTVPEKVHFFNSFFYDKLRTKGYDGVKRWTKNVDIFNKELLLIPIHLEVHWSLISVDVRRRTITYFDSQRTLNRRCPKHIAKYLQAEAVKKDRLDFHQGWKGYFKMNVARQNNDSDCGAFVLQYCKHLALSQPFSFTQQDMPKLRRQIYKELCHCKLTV

Assays:
[1] = biological target: RING1B (human (endogenous in HEK 293FT)) (UniProt Q99496); assay: co-IP; immunoprecipitation from the DNase I-digested chromatin fraction of HEK 293FT cells (IP buffer 250 mM NaCl, 1% Triton X-100), Dynabeads Protein A/G, immunoblot; Fig. 1f, g with or without 500 U/ml benzonase
[2] = biological target: RING1B(Q137A/Q138A) (human (endogenous in HEK 293FT)) (UniProt Q99496); assay: as above

| binding [1] | binding [2] | Molecule |
| --- | --- | --- |
| binds |  | PELP1 (from UniProt Q8IZL8 1-1130) |
| binds | binds | RYBP (protein, UniProt Q8N488 1-228) MTMGDKKSPTRPKRQAKPAADEGFWDCSVCTFRNSAEAFKCSICDVRKGTSTRKPRINSQLVAQQVAQQYATPPPPKKEKKEKVEKQDKEKPEKDKEISPSVTKKNTNKKTKPKSDILKDPPSEANSIQSANATTKTSETNHTSRPRLKNVDRSTAQQLAVTVGNVTVIITDFKEKTRSSSTSSSTVTSSAGSEQQNQSSSGSESTDKGSSRSSTPKGDMSAVNDESF |
| binds | binds | PCGF6 (protein, UniProt Q9BYE7 1-350) MEGVAVVTAGSVGAAKTEGAAALPPPPPVSPPALTPAPAAGEEGPAPLSETGAPGCSGSRPPELEPERSLGRFRGRFEDEDEELEEEEELEEEEEEEEEDMSHFSLRLEGGRQDSEDEEERLINLSELTPYILCSICKGYLIDATTITECLHTFCKSCIVRHFYYSNRCPKCNIVVHQTQPLYNIRLDRQLQDIVYKLVINLEEREKKQMHDFYKERGLEVPKPAVPQPVPSSKGRSKKVLESVFRIPPELDMSLLLEFIGANEGTGHFKPLEKKFVRVSGEATIGHVEKFLRRKMGLDPACQVDIICGDHLLEQYQTLREIRRAIGDAAMQDGLLVLHYGLVVSPLKIT |

More lines, now with the values behind:

| Molecule | binding [1] | binding [2] |
| --- | --- | --- |
| SENP3 (from UniProt Q9H4L4 1-574) | binds |  |
| PHC2 (protein, UniProt Q8IXK0 1-858) MENELPVPHTSSSACATSSTSGASSSSGCNNSSSGGSGRPTGPQISVYSGIPDRQTVQVIQQALHRQPSTAAQYLQQMYAAQQQHLMLQTAALQQQHLSSAQLQSLAAVQQASLVSNRQGSTSGSNVSAQAPAQSSSINLAASPAAAQLLNRAQSVNSAAASGIAQQAVLLGNTSSPALTASQAQMYLRAQMLIFTPTATVATVQPELGTGSPARPPTPAQVQNLTLRTQQTPAAAASGPTPTQPVLPSLALKPTPGGSQPLPTPAQSRNTAQASPAGAKPGIADSVMEPHKKGDGNSSVPGSMEGRAGLSRTVPAVAAHPLIAPAYAQLQPHQLLPQPSSKHLQPQFVIQQQPQPQQQQPPPQQSRPVLQAEPHPQLASVSPSVALQPSSEAHAMPLGPVTPALPLQCPTANLHKPGGSQQCHPPTPDTGPQNGHPEGVPHTPQRRFQHTSAVILQLQPASPPQQCVPDDWKEVAPGEKSVPETRSGPSPHQQAIVTAMPGGLPVPTSPNIQPSPAHETGQGIVHALTDLSSPGMTSGNGNSASSIAGTAPQNGENKPPQAIVKPQILTHVIEGFVIQEGAEPFPVGRSSLLVGNLKKKYAQGFLPEKLPQQDHTTTTDSEMEEPYLQESKEEGAPLKLKCELCGRVDFAYKFKRSKRFCSMACAKRYNVGCTKRVGLFHSDRSKLQKAGAATHNRRRASKASLPPLTKDTKKQPTGTVPLSVTAALQLTHSQEDSSRCSDNSSYEEPLSPISASSSTSRRRQGQRDLELPDMHMRDLVGMGHHFLPSEPTKWNVEDVYEFIRSLPGCQEIAEEFRAQEIDGQALLLLKEDHLMSAMNIKLGPALKIYARISMLKDS | binds | binds |
| YAF2 (protein, UniProt Q8IY57 1-180) MGDKKSPTRPKRQPKPSSDEGYWDCSVCTFRNSAEAFKCMMCDVRKGTSTRKPRPVSQLVAQQVTQQFVPPTQSKKEKKDKVEKEKSEKETTSKKNSHKKTRPRLKNVDRSSAQHLEVTVGDLTVIITDFKEKTKSPPASSAASADQHSQSGSSSDNTERGMSRSSSPRGEASSLNGESH | binds | binds |
| NOL9 (protein, UniProt Q5SY16 1-702) MADSGLLLKRGSCRSTWLRVRKARPQLILSRRPRRRLGSLRWCGRRRLRWRLLQAQASGVDWREGARQVSRAAAARRPNTATPSPIPSPTPASEPESEPELESASSCHRPLLIPPVRPVGPGRALLLLPVEQGFTFSGICRVTCLYGQVQVFGFTISQGQPAQDIFSVYTHSCLSIHALHYSQPEKSKKELKREARNLLKSHLNLDDRRWSMQNFSPQCSIVLLEHLKTATVNFITSYPGSSYIFVQESPTPQIKPEYLALRSVGIRREKKRKGLQLTESTLSALEELVNVSCEEVDGCPVILVCGSQDVGKSTFNRYLINHLLNSLPCVDYLECDLGQTEFTPPGCISLLNITEPVLGPPFTHLRTPQKMVYYGKPSCKNNYENYIDIVKYVFSAYKRESPLIVNTMGWVSDQGLLLLIDLIRLLSPSHVVQFRSDHSKYMPDLTPQYVDDMDGLYTKSKTKMRNRRFRLAAFADALEFADEEKESPVEFTGHKLIGVYTDFAFRITPRNRESHNKILRDLSILSYLSQLQPPMPKPLSPLHSLTPYQVPFNAVALRITHSDVAPTHILYAVNASWVGLCKIQDDVRGYTNGPILLAQTPICDCLGFGICRGIDMEKRLYHILTPVPPEELRTVNCLLVGAIAIPHCVLKCQRGIEGTVPYVTTDYNFKLPGASEKIGAREPEEAHKEKPYRRPKFCRKMK | binds |  |
